The values below come from the supplement of paper PMC10037445.

Test [1] relates to RAW-Dual. The test is described as follows: IRF Lucia reporter activity, fold change vs agonist alone; higher = enhanced IRF activity. The conditions noted are these: cytotoxicity flag (confluency mask): not cytotoxic, agonist: MPLA (TLR4) […]. The method in brief: (§1)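 Library stock was pin-tooled at 50 nL into 384-well plates of RAW-Dual macrophages (50,000 cells/well, DMEM), followed 1 h later by a PRR agonist, and the cells were kept at 37 °C, 5% CO2. Supernatant collected after 20 hours was read for IRF by QuantiLuc luminescence and for NF-κB by QuantiBlue absorbance at 620 nm. Reporter activity is fold change over agonist-alone wells, and a well counted as cytotoxic when its IncuCyte confluency was below 70% of agonist controls in both mask sets.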

Test [2] concerns RAW-Dual. The test is described as follows: IRF Lucia reporter activity, fold change vs agonist alone; cytotoxicity flag (confluency mask): not cytotoxic; higher = enhanced IRF activity. The method in brief: as §1
The mark [3] stands for this setting: library stock concentration (final ~1000-fold dilution): 10 mM.
Setting [4] is: agonist: 3'3'-cGAMP (STING) 10 ug/mL.
The mark [5] stands for this setting: library stock concentration (final ~1000-fold dilution): 2 mM.

Over roughly 2,900 compounds, “IRF Lucia reporter activity, fold change vs agonist alone” has its median near 0.9; the highest 2% begin near 2.8. The list shows a part of the results.

`N#Cc1c(Oc2ccc(F)c(NC(=O)Cc3cccc(C(F)(F)F)c3)c2)ccc2nc(NC(=O)C3CC3)sc12`: the “IRF Lucia reporter activity” value in the test with RAW-Dual [1] (setting [3]) is 1.

As to `COC(=O)C1=COC(OC2OC(CO)C(O)C(O)C2O)C2C1CC(O)C2C` (stereo not given) (library stock concentration (final ~1000-fold dilution): 10 mM), the results for the “IRF Lucia reporter activity” value with RAW-Dual [2] (setting [4]) and in the test on RAW-Dual [2] (agonist: LPS (TLR4) 0.1 ug/mL) were 1.08 and 1.3, respectively. On to `COC(=O)C1=COC(OC2OC(CO)C(O)C(O)C2O)C2C1CC(O)C2C` (stereo not given), for which the “IRF Lucia reporter activity” value in the test with RAW-Dual [1] (setting [3]) turned out to be 1.12. As for `Cl.OC(CCN1CCCC1)(c1ccccc1)C1CCCCC1` (stereo not given), in the test on RAW-Dual [1] (setting [3]), the “IRF Lucia reporter activity” value was found to be 1.22.

On to `Cl.OC(CCN1CCCC1)(c1ccccc1)C1CCCCC1` (stereo not given) (library stock concentration (final ~1000-fold dilution): 10 mM), for which the entries for the “IRF Lucia reporter activity” value in the test on RAW-Dual [2] (setting [4]) and with RAW-Dual [2] (agonist: LPS (TLR4) 0.1 ug/mL) were 0.757 and 1.51, respectively. As to `O=C1Nc2ccccc2C1=O`, the “IRF Lucia reporter activity” value in the test with RAW-Dual [1] (setting [3]) came out at 1.01. On to `O=C1Nc2ccccc2C1=O` (library stock concentration (final ~1000-fold dilution): 10 mM), for which the “IRF Lucia reporter activity” value with RAW-Dual [2] (setting [4]) stood at 0.986; with RAW-Dual [2] (agonist: LPS (TLR4) 0.1 ug/mL), 1.28. Take `CN1C(C(=O)Nc2ccccn2)=C(O)c2sc(Cl)cc2S1(=O)=O`: the “IRF Lucia reporter activity” value with RAW-Dual [1] (setting [5]) was 1.27. Regarding `CN1C(C(=O)Nc2ccccn2)=C(O)c2sc(Cl)cc2S1(=O)=O` (library stock concentration (final ~1000-fold dilution): 2 mM), the entries for the “IRF Lucia reporter activity” value in the test with RAW-Dual [2] (setting [4]) and in the test on RAW-Dual [2] (agonist: LPS (TLR4) 0.1 ug/mL) were 0.996 and 1, respectively.

Turning to `N#Cc1ncccn1`, the “IRF Lucia reporter activity” value in the test with RAW-Dual [1] (setting [5]) was 1.07. Turning to `N#Cc1ncccn1` (library stock concentration (final ~1000-fold dilution): 2 mM), the “IRF Lucia reporter activity” value came out at 0.907 in the test with RAW-Dual [2] (setting [4]) and 0.936 with RAW-Dual [2] (agonist: LPS (TLR4) 0.1 ug/mL). For `C=C1CCC2C(C)(COC(=O)CCC(=O)O)C(OC(=O)CCC(=O)O)CCC2(C)C1C=CC1=CCOC1=O` (stereo not given), the “IRF Lucia reporter activity” value with RAW-Dual [1] (setting [3]) was determined as 1.07. For `C=C1CCC2C(C)(COC(=O)CCC(=O)O)C(OC(=O)CCC(=O)O)CCC2(C)C1C=CC1=CCOC1=O` (stereo not given) (library stock concentration (final ~1000-fold dilution): 10 mM), the “IRF Lucia reporter activity” value amounted to 1.07 with RAW-Dual [2] (setting [4]) and 1.12 in the test with RAW-Dual [2] (agonist: LPS (TLR4) 0.1 ug/mL). `CCOC(=O)C1=Cc2ccc(C(F)(F)C(F)(F)F)cc2N=C(N)C1` (library stock concentration (final ~1000-fold dilution): .1 mM): the “IRF Lucia reporter activity” value was determined as 0.839 with RAW-Dual [2] (setting [4]) and 0.547 with RAW-Dual [2] (agonist: LPS (TLR4) 0.1 ug/mL). As for `Cc1ccc(CNc2ncnc3ccc(-c4ccc(CO)o4)cc23)o1` (library stock concentration (final ~1000-fold dilution): 10 mM), the results for the “IRF Lucia reporter activity” value in the test on RAW-Dual [2] (setting [4]) and in the test on RAW-Dual [2] (agonist: LPS (TLR4) 0.1 ug/mL) were 0.504 and 0.761, respectively. `Cc1ccc(CNc2ncnc3ccc(-c4ccc(CO)o4)cc23)o1`: the “IRF Lucia reporter activity” value in the test on RAW-Dual [1] (setting [3]) came out at 0.892. On the same count and under the same terms, as for `COc1cc(OC)c(C(=O)CCCN2CCCC2)c(OC)c1.Cl`, the figure is 1.01. For the compound `COc1cc(OC)c(C(=O)CCCN2CCCC2)c(OC)c1.Cl` (library stock concentration (final ~1000-fold dilution): 10 mM), the entries for the “IRF Lucia reporter activity” value with RAW-Dual [2] (setting [4]) and in the test on RAW-Dual [2] (agonist: LPS (TLR4) 0.1 ug/mL) were 1.01 and 0.894, respectively. For `O=C(Nc1ccc([N+](=O)[O-])cc1Cl)c1cc(Cl)ccc1O`, the “IRF Lucia reporter activity” value in the test with RAW-Dual [1] (setting [3]) came to 0.899.

As to `O=C(Nc1ccc([N+](=O)[O-])cc1Cl)c1cc(Cl)ccc1O` (library stock concentration (final ~1000-fold dilution): 10 mM), the “IRF Lucia reporter activity” value in the test on RAW-Dual [2] (setting [4]) turned out to be 0.354; in the test with RAW-Dual [2] (agonist: LPS (TLR4) 0.1 ug/mL), 2.53. Turning to `O=C(Nc1cccnc1)N1CCC(Cc2cccc(Oc3ccc(C(F)(F)F)cn3)c2)CC1`, the “IRF Lucia reporter activity” value in the test on RAW-Dual [1] (setting [3]) turned out to be 1.09. Consider `O=C(Nc1cccnc1)N1CCC(Cc2cccc(Oc3ccc(C(F)(F)F)cn3)c2)CC1` (library stock concentration (final ~1000-fold dilution): 10 mM), for which the results for the “IRF Lucia reporter activity” value in the test with RAW-Dual [2] (setting [4]) and with RAW-Dual [2] (agonist: LPS (TLR4) 0.1 ug/mL) were 0.925 and 1.02, respectively.

For the compound `Cc1cc(C)nc(NS(=O)(=O)c2ccc(NC(=S)NC(=O)COc3ccc(Br)cc3Cl)cc2)n1` (library stock concentration (final ~1000-fold dilution): 10 mM), the “IRF Lucia reporter activity” value stood at 1.03 with RAW-Dual [2] (setting [4]) and 1.12 in the test with RAW-Dual [2] (agonist: LPS (TLR4) 0.1 ug/mL). On to `Cc1cc(C)nc(NS(=O)(=O)c2ccc(NC(=S)NC(=O)COc3ccc(Br)cc3Cl)cc2)n1`, for which the “IRF Lucia reporter activity” value with RAW-Dual [1] (setting [3]) is 1.29. As for `CCCCNc1ccc(C(=O)OCCN(C)C)cc1.Cl` (library stock concentration (final ~1000-fold dilution): 10 mM), the results for the “IRF Lucia reporter activity” value in the test with RAW-Dual [2] (setting [4]) and in the test with RAW-Dual [2] (agonist: LPS (TLR4) 0.1 ug/mL) were 0.886 and 0.983, respectively.

Turning to `CCCCNc1ccc(C(=O)OCCN(C)C)cc1.Cl`, the “IRF Lucia reporter activity” value in the test with RAW-Dual [1] (setting [3]) was found to be 1.07. For `Cc1cccc(-c2nn3c(c2-c2ccnc4ccc(C(N)=O)cc24)CCC3)n1` (library stock concentration (final ~1000-fold dilution): 10 mM), the “IRF Lucia reporter activity” value came out at 0.841 in the test with RAW-Dual [2] (setting [4]) and 0.702 in the test with RAW-Dual [2] (agonist: LPS (TLR4) 0.1 ug/mL). In the case of `Cc1cccc(-c2nn3c(c2-c2ccnc4ccc(C(N)=O)cc24)CCC3)n1`, the “IRF Lucia reporter activity” value in the test on RAW-Dual [1] (setting [3]) was found to be 0.787. Turning to `CN1CCN(c2ccc3nc(-c4c(N)c5c(F)cccc5[nH]c4=O)[nH]c3c2)CC1`, the “IRF Lucia reporter activity” value in the test on RAW-Dual [1] (setting [3]) amounted to 0.345. Consider `CN1CCN(c2ccc3nc(-c4c(N)c5c(F)cccc5[nH]c4=O)[nH]c3c2)CC1` (library stock concentration (final ~1000-fold dilution): 10 mM), for which the “IRF Lucia reporter activity” value with RAW-Dual [2] (setting [4]) came out at 0.0724; in the test with RAW-Dual [2] (agonist: LPS (TLR4) 0.1 ug/mL), 0.202.
